Reference: PMC4336329 (PLoS ONE, 2015)
In all, about 310,000 compounds went through this assay and about 14,000 (4.5%) showed an effect of 50% or more. Effects have a minus sign here. The list shows a part of the results.

These compounds were tested against human ether-à-go-go-related gene (hERG) potassium channel (human, UniProt Q12809) (assay: primary screen, population patch clamp on CHO cells stably expressing hERG).
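Also: peak tail current of the secondary pulse compared with the same well before compound.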

Chain of human ether-à-go-go-related gene (hERG) potassium channel (Q12809 whole entry, looked up): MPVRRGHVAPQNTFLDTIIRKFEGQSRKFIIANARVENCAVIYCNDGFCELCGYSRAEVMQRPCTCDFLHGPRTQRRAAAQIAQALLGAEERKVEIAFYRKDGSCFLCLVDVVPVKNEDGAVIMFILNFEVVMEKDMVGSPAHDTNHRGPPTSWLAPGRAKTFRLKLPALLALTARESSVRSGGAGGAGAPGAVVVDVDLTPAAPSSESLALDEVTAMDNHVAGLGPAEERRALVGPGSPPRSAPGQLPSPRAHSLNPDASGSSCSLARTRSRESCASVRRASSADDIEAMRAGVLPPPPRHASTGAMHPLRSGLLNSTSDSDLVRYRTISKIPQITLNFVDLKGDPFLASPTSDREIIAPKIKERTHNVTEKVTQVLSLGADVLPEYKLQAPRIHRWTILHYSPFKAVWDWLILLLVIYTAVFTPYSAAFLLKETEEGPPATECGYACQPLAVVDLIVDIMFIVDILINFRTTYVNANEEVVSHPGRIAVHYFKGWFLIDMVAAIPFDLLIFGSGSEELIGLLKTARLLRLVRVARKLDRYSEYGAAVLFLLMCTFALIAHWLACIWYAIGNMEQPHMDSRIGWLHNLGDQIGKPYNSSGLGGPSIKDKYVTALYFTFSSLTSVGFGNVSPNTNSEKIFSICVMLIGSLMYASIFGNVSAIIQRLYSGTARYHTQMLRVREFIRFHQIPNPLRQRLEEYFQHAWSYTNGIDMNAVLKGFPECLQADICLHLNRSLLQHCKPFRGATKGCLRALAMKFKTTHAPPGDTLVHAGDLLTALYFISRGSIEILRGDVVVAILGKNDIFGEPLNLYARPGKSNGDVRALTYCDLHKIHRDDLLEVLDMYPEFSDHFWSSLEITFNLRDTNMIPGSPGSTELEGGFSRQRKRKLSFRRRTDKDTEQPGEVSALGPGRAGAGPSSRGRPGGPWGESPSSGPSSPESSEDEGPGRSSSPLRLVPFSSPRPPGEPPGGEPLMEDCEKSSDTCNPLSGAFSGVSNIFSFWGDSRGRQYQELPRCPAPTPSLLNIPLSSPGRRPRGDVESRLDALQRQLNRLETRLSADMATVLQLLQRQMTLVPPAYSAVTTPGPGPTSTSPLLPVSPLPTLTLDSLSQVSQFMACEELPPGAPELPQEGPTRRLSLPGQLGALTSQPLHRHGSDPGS

| Structure (SMILES) | hERG current change (%, negative = inhibition) at 10uM |
| --- | --- |
| CCOC(=O)c1ccccc1NC(=O)c1ccc2nc[nH]c2c1 | 19.8% |
| CC(C)Cn1c(N)c(C(=O)COC(=O)/C=C/c2cccs2)c(=O)n(C)c1=O | -49.9% |
| Cc1cc(C=O)c(C)n1-c1ccc(Oc2ccc([N+](=O)[O-])cn2)cc1 | -56.7% |
| CCOc1ccc(-c2nnc(Nc3ccc(OC)c(C(=O)N4CCCCC4)c3)c3ccccc23)cc1 | -10.2% |
| N#Cc1cc(C(=O)c2cc(F)ccc2O)cn(Cc2ccccc2)c1=O | 4.69% |
| COc1cccc(NC(=O)CN(C)CC(=O)Nc2ccc(Br)cc2)c1 | -29.9% |
| COc1cc(CNCCc2ccccc2)ccc1OCc1ccc(Cl)nc1.Cl | -39.5% |
| CCOC(=O)C1=C(N)OC2=C(C(=O)CCC2)C1c1cccs1 (stereo not drawn) | 1.13% |
| Cc1ccc(C(=O)N/C(=C\c2ccco2)C(=O)N2CCOCC2)cc1C | 11% |
| CN(C)S(=O)(=O)c1cccc(-c2csc(=Nc3ccccc3)n2CCCN2CCOCC2)c1 | -26.5% |
| COC(=O)/C=C1/SC(=Nc2ccc(Cl)c(Cl)c2)NC1=O | 5.87% |
| CN1CCc2c(sc(NC(=O)C3CCN(S(=O)(=O)c4cccs4)CC3)c2C(N)=O)C1.Cl | -30.8% |
| Cn1c2ccc(Br)cc2c2nnc(SCC(=O)O)nc21 | 12.1% |
| CCCC(=O)Nc1nnc(Cc2ccccc2)s1 | -0.72% |
| Cc1cc(OCCCCN2C(=O)NC(C)(C)C2=O)ccc1[N+](=O)[O-] | 0.319% |
| O=C(CN(C(=O)CNS(=O)(=O)c1ccc(F)cc1)C1CCCC1)NCc1ccco1 | -9.76% |
| C=CCN(CC=C)S(=O)(=O)c1ccc(NC(=S)NC(=O)c2ccco2)cc1 | 9.12% |
| Cc1nn(Cc2ccc(Cl)c(Cl)c2)c(C)c1NC(=O)c1cc(-c2ccc3c(c2)OCO3)on1 | 6.42% |
| CCCCC(Sc1nc(N)c(NC(=O)c2ccco2)c(=O)[nH]1)C(=O)O (stereo not drawn) | 13.6% |
| COc1ccc(C(=O)Cc2cc3cccc(OC)c3oc2=O)cc1 | 11.9% |
| O=C(N/N=C/c1c(Cl)cccc1Cl)c1n[nH]c2c1CCCC2 | -1.9% |
| COc1ccccc1OCCCN1C(=O)C(=O)c2cccc(C)c21 | -13.3% |

| Structure (SMILES) | hERG current change (%, negative = inhibition) at 10uM |
| --- | --- |
| N#Cc1ccc(OCC(=O)NCC2(N3CCCCC3)CCCCC2)cc1 | -78.2% |
| O=C(NC1(C(F)(F)F)C(=O)Nc2c1c(=O)[nH]c(=O)n2Cc1ccco1)C1CC1 (stereo not drawn) | -0.499% |
| CCCCNC(=O)C(=O)N/N=C/c1ccc(OCc2ccccc2)cc1 | 18.7% |
| COc1ccccc1CNC(=O)CN(C)S(=O)(=O)c1ccc(F)cc1 | 16.8% |
| Cc1cccc(NC(=O)Cn2c(=O)oc3ccccc32)c1 | 8.12% |
| Brc1ccc(-c2nc3ncccn3c2NC2CCCCC2)o1 | -25.9% |
| O=C(Nc1ccccc1)NC1CCCCNC1=O (stereo not drawn) | 21.4% |
| COc1ccc(S(=O)(=O)N2CCC(C(=O)Nc3nnc(C)s3)CC2)cc1OC | 15.9% |
| COc1ccccc1CNC(=O)COC(=O)c1ccccc1SCC(=O)N1CCCC1 | -13% |
| COc1ccc(S(=O)(=O)N2CCCCCC2)cc1C(=O)Nc1cc(C)ccn1 | -48% |
| COCCN1C2=C(C(=O)CC(C)(C)C2)C(c2ccc(OC)c(OC)c2)C2=C1CC(C)(C)CC2=O | -9.47% |
| CCCC(=NCC(=O)O)C1=C(O)C(C(=O)OC)C(C)(C)CC1=O (stereo not drawn) | 10.1% |
| O=C1NC(=S)N/C1=C/c1ccc2c(c1)OCO2 | 18% |
| CNc1snc(C)c1C(=O)OC(C)C(=O)Nc1ccccc1 (stereo not drawn) | 12.6% |
| COc1ccc(/C=N/Nc2nc(N3CCCC3)nc(N3CCCC3)n2)cc1 | -13.1% |
| CCOC(=O)C1(Cc2cccc(F)c2)CCN(Cc2cnc(C)s2)CC1 | -2.73% |
| COc1cccc(N(CC(=O)Nc2cccc(N(C)S(C)(=O)=O)c2)S(C)(=O)=O)c1 | 3.24% |
| CCN(C(=O)c1c(-c2ccccc2Cl)noc1C)C1CCCCC1 | -0.584% |
| O=[N+]([O-])c1cc(Cl)ccc1-c1nc(-c2ccncc2)no1 | -10.3% |
| CNC(=O)c1sc(SC)cc1-c1ccc(Cl)cc1 | -4.92% |
| CCOC(=O)CCC(=O)Nc1ccc(S(=O)(=O)N2CCc3ccccc32)cc1 | 20.1% |
| CC(=N\O)/C(CN(C)C)=N/O | 5.67% |

| Structure (SMILES) | hERG current change (%, negative = inhibition) at 10uM |
| --- | --- |
| COC(=O)C1=C(C)OC(N)=C(C#N)C12C(=O)Nc1ccccc12 (stereo not drawn) | 10.4% |
| COc1cc(NC(=O)CSc2nncn2C)cc(OC)c1OC | 14.1% |
| CCCCCCCCCC(=O)Nn1cnc2ccccc2c1=O | 0.742% |
| N#CCCN(Cc1cccnc1)C(=S)NC1CC2C=CC1C2 (stereo not drawn) | 2.95% |
| Cc1ccccc1OCC(=O)N1CCCCCCC1 | 1.22% |
| COc1cc(OC)cc(C(=O)Nc2nc(CC(=O)NCc3ccc(F)cc3)cs2)c1 | 0.373% |
| O=C(Nc1ccc(-c2ccccc2)cc1)c1ccccc1 | 7.94% |
| COC(=O)c1ccc(C)c(NC(=O)C2COc3ccccc3O2)c1 (stereo not drawn) | 7.36% |
| O=C(Cn1nc(Cc2ccncc2)c2ccccc2c1=O)Nc1cccnc1Cl | -2.53% |
| COc1cccc(NC(=O)NNC(=O)CCc2ccc(O)c(O)c2)c1 | 26.9% |
| CCN1CCCC1CNCc1ccccc1OCc1ccc(F)cc1.Cl (stereo not drawn) | -65% |
| Cc1ccc2cc(CCNC(=O)c3ccc(S(=O)(=O)N4CCOCC4)cc3)c(=O)[nH]c2c1 | -15.4% |
| O=C(Nc1ccnn1C1CCN(Cc2ccc(CO)o2)CC1)c1ccccc1 | 1.16% |
| CCCN(CC(=O)Nc1ccccc1OC)C(=O)c1ccc(S(=O)(=O)NCc2ccco2)cc1 | -27.7% |
| CCOc1ccc(/C=N/NC(=O)c2ccc(O)cc2)cc1CN1CC2CC(C1)c1cccc(=O)n1C2 (stereo not drawn) | 4.7% |
| COC(=O)CSc1nc2ncccc2[nH]1 | -4.58% |
| O=C(CSc1nnc(NC(=O)c2cccc(F)c2)s1)NC1CCCC1 | 13.9% |
| CC1(c2nnc(-c3ccncc3)o2)CC(c2cccnc2)=NO1 (stereo not drawn) | 13% |
| O=C(/C=C/c1ccc(N2CCC(c3ccccc3)=N2)cc1)c1ccccc1 | 11.3% |
| O=C(COC(=O)CNC(=O)c1ccccc1)NCCc1ccccc1 | 4.17% |
| CCc1ccc(N2C(=O)CC(N3CCC(C(=O)OC)CC3)C2=O)cc1 (stereo not drawn) | -3.29% |
| CC1(C)NCCN2C(=O)CSC21.Cl (stereo not drawn) | 10.1% |

| Structure (SMILES) | hERG current change (%, negative = inhibition) at 10uM |
| --- | --- |
| O=C(CCC(=O)OCc1ccc([N+](=O)[O-])cc1)Nc1ccc(F)cc1 | 4.29% |
| Cc1nccn1CCN(C)Cc1cn(Cc2ccccc2)nc1-c1ccc2c(c1)OCO2 | -60% |
| Cc1onc(-c2ccccc2Cl)c1C(=O)Nc1ccc(-c2nnc3n2CCCCC3)cc1 | -4.31% |
| CCOC(=O)c1[nH]ncc1CN1CCCC(C(=O)c2ccc(C(C)(C)C)cc2)C1 (stereo not drawn) | -17.6% |
| COc1ccc(NC(=O)CSc2nnc(Cc3ccc(C)cc3)c(=O)n2N)cc1 | -4.36% |
| CCC1CCCCN1C(=O)COC(=O)CSc1ccc(C(N)=O)cc1[N+](=O)[O-] (stereo not drawn) | -16.1% |
| CCc1ccc(CN2CCN(C(=O)c3ccco3)CC2)cc1.O=C(O)C(=O)O | -23.8% |
| O=C(OCCN1CCN(c2ncc(C(F)(F)F)cc2Cl)CC1)c1ccc(Cl)cc1 | 10.4% |
| Cc1ccccc1CNC(=O)COc1ccccc1 | 4.39% |
| COC(=O)c1cn(CCOc2ccccc2)c2ccccc12 | 6.29% |
| CCSc1nc2c([nH]c3ccccc32)c(=O)n1C | 0.208% |
| Cc1ccc(C)c(N2CCN(CC(=O)Nc3ccc4[nH]c(=O)[nH]c4c3)CC2)c1 | -3.56% |
| O=C1/C(=C/c2cccc(F)c2)Oc2cc(O)ccc21 | 15.6% |
| COCCn1c(C)cc(C(=O)CSc2nc3ccccc3c(=O)n2Cc2ccco2)c1C | -31.2% |
| CCc1ccc(Nc2ncc3c(n2)CC(c2ccc(OC)cc2)CC3=O)cc1 (stereo not drawn) | -1.22% |
| C#CCOCCOCCOCCNc1nc(N2CCN(C(=O)[C@H]([C@@H](C)CC)n3cc([C@@H](N)CC(C)C)nn3)CC2)nc(N2CCN(C(=O)[C@H](CCCCN)n3cc([C@@H](N)C(C)CC)nn3)CC2)n1.Cl (stereo partly drawn) | 7.84% |
| Cc1noc(C)c1COc1ccccc1C(=O)NNC(=O)c1ccc(F)cc1 | -4.35% |
| CC(C)OCCCn1c(SCC(=O)N2CCCC2=O)nc2ccccc2c1=O | -19.8% |
| CCS(=O)(=O)CCSc1nc(C)cc(C)c1C#N | -0.949% |
| CC(=O)N(C1=NCCCS1)c1ccccc1Cl | -1.34% |
| Cc1cc(C)nc(NC2=NCC(=O)N2c2ccc(F)c(Cl)c2)n1 | -6.65% |
